The list shows a part of the results. For part of these data: At the low end of the ranking, values are background and their order means little. For part of these data: The protein was read in a cell extract, so binding may be indirect.
How the values were obtained:
Conditions in all cases: 20 mM HEPES pH 7.9, 100 mM NaCl, 1 mM DTT, 0.2 mg/mL BSA, 0.02% Triton X-100, 2% milk, 0.4 mg/mL salmon testes DNA; 1 h; temperature not stated; high values mean tight binding; double strand, one strand shown; sequences stand for … in GCCTAGCAC…GTGCTAGGTCTTGATTCGCTTGACGCTGCTG
[1] = target: PU.1 (IVT) (UniProt P17947); assay: protein-binding microarray (PBM)
[2] = target: PU.1 (endogenous, THP-1 nuclear extract) (UniProt P17947); assay: nuclear extract protein-binding microarray (nextPBM)
[3] = target: T1, FLI1 (endogenous, THP-1 nuclear extract) (UniProt Q01543); assay: as above
T1 sequence: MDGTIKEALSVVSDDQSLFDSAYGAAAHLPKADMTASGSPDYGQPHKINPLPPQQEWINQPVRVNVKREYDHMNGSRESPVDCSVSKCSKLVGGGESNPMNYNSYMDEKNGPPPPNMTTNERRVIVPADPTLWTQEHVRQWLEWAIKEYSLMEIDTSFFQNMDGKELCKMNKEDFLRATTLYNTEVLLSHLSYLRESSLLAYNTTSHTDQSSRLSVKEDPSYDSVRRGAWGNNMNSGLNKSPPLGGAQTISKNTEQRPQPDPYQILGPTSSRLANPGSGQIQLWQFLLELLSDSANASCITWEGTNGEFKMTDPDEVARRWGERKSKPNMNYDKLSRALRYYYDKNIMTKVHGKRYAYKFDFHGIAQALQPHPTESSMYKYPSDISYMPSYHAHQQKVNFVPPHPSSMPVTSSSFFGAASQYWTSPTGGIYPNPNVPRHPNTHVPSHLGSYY

Sequence | binding signal [1] [z-score] | binding signal [2] [z-score] | binding signal [3] [z-score]
ATATAGAGGAACTGAAATTC | 3.54 | 3.21 | 1.27
AAATTAAGGAACTGAAAAAC | 3.96 | 4.04 | 0.898
GGGAAAAGGAAGTCTTCTTT | 3.35 | 2.91 | 2.37
ACAAAAAGGCACTGTGCCCC | -0.199 | -0.391 | -0.876
GATAAGAGTAAGTCCTCTGT | -0.23 | 0.138 | -0.0869
AGAAAGAGGAAGTGCAACCA | 8.06 | 7.4 | 4.62
AAAAAAAGGAACTGCAGACC | 4.74 | 4.35 | 1.17
CAAAAGGGGAAGTGCCACAC | 7.23 | 7.2 | 3.31
TAAAAGAGGAAGTCCTCTTT | 7.92 | 7.49 | 3.7
GTGGGAGGGAAGTGAGGCTC | 2.25 | 2.32 | 1.31
ACAAAAAAGAACTGTGCCCC | 0.00246 | 0.199 | -0.394
GGCGGGAGGAAGTGCTCCAT | 2.93 | 3.11 | 2.66
AAAAAGAGGAAGTGAGCTTA | 8.51 | 7.48 | 4.25
AGAAAAAGGAACTGTGCCCC | 3.05 | 3.05 | 0.67
CAATACAGGAAGTGGCCAAA | 4.62 | 5.2 | 4.85
CAAAAAGGGAAGTTGATGCT | 7.79 | 7.12 | 3.05
AAGGTGGGGAAGTGAAGAAA | 2.62 | 2.52 | 1.44
AGGGAAGGGAAGTGGAAGAG | 2.68 | 2.63 | 2.07
AAAATGAGGAAGTGACTTTG | 8.87 | 7.47 | 4.62
TGAAAGAAGAAGTGCAACCA | 2.19 | 2.61 | -0.0474
CGAAAGGGGAAGTGATAAAC | 6.93 | 7.09 | 3.38
TGTAAGAGGAAGTTCTGCTT | 6.27 | 6.65 | 3.35
AGAAAGGGGAAGTGCTAAAC | 7.63 | 7.23 | 3.23
GAAAACACGAAGTCCCATAG | 0.299 | 0.815 | 0.537

Sequence | binding signal [1] [z-score] | binding signal [2] [z-score] | binding signal [3] [z-score]
CGAAAGGCGAAGTGCTAAAC | 0.568 | 0.695 | 0.0901
GAAAACAGGAAGCCCCATAG | 4.09 | 5.19 | 3.04
GAAAAGAGGAAGTGACTGCA | 8.32 | 7.55 | 4.11
AGGAGGAGGAAGTGGAGAGT | 4.5 | 4.43 | 2.53
GAAATGAGGAAGTGTCACAT | 7.58 | 7.2 | 3.52
GGGGAGAGGAAGTGGCCTTT | 4.25 | 4.45 | 3.13
TAGATGAGGAAGTCGGGAAA | 4.77 | 5.33 | 2.27
ATAAAGAGGAAGTGCTGGAA | 7.51 | 7.25 | 4.21
GGAGAGAGGAAGTCAACTGA | 3.75 | 3.79 | 2.36
GAAAAGAGGAAGTGAAATTG | 8.72 | 7.57 | 5.19
AAAAGAGGGAAGTGCCGCAC | 4.97 | 5.82 | 1.8
AAAAAGAGGAAGTCTGGTGT | 8.02 | 7.47 | 3.91
AAATAAAGGAAGTGAAAAAC | 4.97 | 4.99 | 2.56
AATAAGAGGAAGTCCTCTGT | 6.25 | 6.68 | 3.13
GGAAAGAGGAACTGGAGCTG | 5.94 | 6.36 | 2.63
TCAACAAGGAAGTGATCCCT | 2.95 | 3.36 | 1.92
AAAAAGGGGAAATGATAGAA | 6.29 | 6.08 | 2.49
TGACAGAGGAAGTGAATCTC | 3.77 | 3.94 | 2.69
GATAGGAGGAAGTCCTCTGT | 4.43 | 4.4 | 2.35
AGAATGGGGAAGTGGTGAAG | 6.62 | 6.75 | 2.52
AAGAAAGGGAAGTGCACTTG | 4.78 | 5.06 | 1.92
CAAATGAGGAACTGGTGCGG | 5.9 | 6.34 | 2.24
AAAGTGGGGAAGTGACAAAA | 3.36 | 3.06 | 1.19
CAAATGAGGAACAGATGCGG | 3.59 | 3.75 | 0.483

Sequence | binding signal [1] [z-score] | binding signal [2] [z-score] | binding signal [3] [z-score]
AAAAAAAGGAACTGTCTAGA | 4.5 | 4.14 | 1.82
TTTAAAGGGAAGTGGCTGTA | 3.74 | 3.96 | 2.02
TGAAAGAGGCAGTGCAACCA | -0.242 | -0.235 | -0.55
AAAAAAGGGAAGTGATTTAA | 8.59 | 7.46 | 3.95
CTGTAGAGGAAGTGGATTAT | 3.87 | 4.1 | 2.91
AGGAAGGGGAAGTGCCCCAG | 5.32 | 6.59 | 2.98
CAGGGGAGGAAGTGGGTTTA | 3.67 | 3.32 | 2.88
AGATTGTGGAAGTACTGTGA | 2.73 | 2.71 | 1.41
CAGAGGGGGAAGTGGTCAAC | 3.72 | 3.98 | 2.01
AAAAACAGGAAGTCACCTCA | 7.82 | 7.15 | 5.21
GAGGTGGGGAAGTGGGCGAG | 2.83 | 2.5 | 1.12
ACAAAAATGAACTGTGCCCC | 0.00141 | -0.385 | -0.696
GAAAGGAGGAAGTGGGTATA | 5.98 | 6.26 | 3.22
TTTTTGAGGAAGTGCAGACT | 6.05 | 6.42 | 2.57
GTCTTGAGGAAGTGCTGAGC | 3.67 | 3.77 | 1.9
AAAATGAGGAAGTGAGCTAA | 7.94 | 7.38 | 3.68
TGACAGAGGAAGTGCAACCA | 3.01 | 3.35 | 2.38
CAAAAGAGGAACTGCTGCTG | 6.83 | 6.87 | 2.72
GGAAAGAGGAACTGGAGGAG | 6.01 | 6.47 | 2.7
AGGAACAGGAAGTGGGTGCT | 5.84 | 6.22 | 5.27
AAAAACAGGAAGTGAACCAG | 7.91 | 7.18 | 5.12
AAAAAAGGGAAGTGGATGCT | 7.67 | 7.06 | 3.48
TTAAAGGGGAAGTGTTTGTT | 6.14 | 6.44 | 3.01
AATATAAGGAAGTGGGCCAG | 4.23 | 4.77 | 2.06

Sequence | binding signal [1] [z-score] | binding signal [2] [z-score] | binding signal [3] [z-score]
CCTGGGAGGAAGTCAGTGCC | 3.14 | 2.5 | 2.38
GTTATGAGGAAGTCTGAATA | 4.61 | 4.65 | 2.02
GCGAAGGGGAAGTCTTCCCT | 4.35 | 4.25 | 1.85
GCTATAGGGAAGTGGGCAGT | 4.02 | 4.54 | 1.57
CAAAGAGGGAAGTGACAGTA | 4.55 | 5.01 | 2.13
AGAGTGAGGAAGTGAACTTA | 4.08 | 3.85 | 1.96
AGGAAGGGGAAGTGGTTCGT | 5.78 | 6.25 | 3.22
TCCAACAGGAAGTGAATACT | 3.96 | 4.41 | 5.09
AGAATGGGGAAGTGCGACAA | 6.54 | 6.51 | 2.34
GAAAACAGGAAGTTCCATAG | 7.66 | 7.3 | 5.09
GAAATGAGGAAGTGAAATTG | 8.42 | 7.48 | 3.74
CAAATGCGGAACTGATGCGG | 5.74 | 6.2 | 2.47
TCAAAGAGGAAGTGCTCCTG | 6.64 | 6.8 | 3.76
TGAAAGGGGAAGTCTTTTTA | 6.55 | 6.82 | 2.95
AAAATAGGGAAGTGCCTTTT | 7.65 | 7.1 | 2.96
CTAAAGGGGAAGTGCCACAC | 5.65 | 6.55 | 2.54
AGGAAAAGGAAGTGGCAGCA | 3.84 | 3.5 | 2.69
CAGATGAGGAACTGACTTAA | 4.12 | 4.18 | 1.33
CAATAAGGGAAGTGGATGCT | 4.24 | 5.04 | 1.82
AGAGGGAGGAAGTGGTGCAG | 3.63 | 3.24 | 2.55
AGAAAGGGGAAGTGAGCACA | 7.09 | 7.11 | 3.51
CAAAAATGGAAGTGGATGCT | 2.54 | 1.57 | 1.44
GCAGAGAGGAAGTGGGAGGG | 3.59 | 4.34 | 2.73
TAAAAGAGGAAGTGGATAAA | 7.81 | 7.14 | 4.2

Sequence | binding signal [1] [z-score] | binding signal [2] [z-score] | binding signal [3] [z-score]
AAAAAGGGGAAGTGGGTACC | 7.97 | 7.32 | 3.63
TGAAAGGGGAAGTGGGTGCC | 6.37 | 6.85 | 3.24
AGAAAAGGGAACTGGCAAGC | 4.26 | 4.54 | 1.1
CAAATGAGGAACTGATGCGG | 5.55 | 6.38 | 1.58
CTCATGGGGAAGTGAGCTCT | 4.16 | 4.33 | 1.64
ACAGGAAGGAAGTGGCCAGA | 2.07 | 2.24 | 2.95
CAAATGAGTAACTGATGCGG | -0.204 | -0.0814 | -1.01
GCCTAGGGGAACTGCCTGTG | 1.77 | 1.93 | 0.19
AAATAAAGGAAGTGCTTTGG | 5.17 | 5.19 | 2.66
CAAAAGAGGAAGTCAATACA | 7.84 | 7.38 | 3.79
GAGATGAGGAAGTGGGGACA | 4.82 | 5.49 | 2.09
CAGAAAAGGAACTGTGCCAC | 1.62 | 1.5 | 0.517
TGGAAGAGGAAGTGCAACCA | 5.9 | 6.57 | 3.74
GGTAAGAGGAAATGAGGAAA | 4.05 | 3.55 | 2.89
AGGAAAGGGAAGTGACTCTC | 4.92 | 5.78 | 2.76
TAAGGAGGGAAGTGAGACTG | 2.08 | 2.59 | 1.2
TAAGAAAGGAAGTGAGAAAG | 2.32 | 1.87 | 2.01
CAATGGAGGAAGTGGAGTTC | 3.76 | 3.84 | 2.48
CAAAAAGGGAAGTGGCTGCT | 6.29 | 6.58 | 2.94
CCTAGGAGGAAGTGGGGAGA | 3.87 | 4.56 | 2.56
CAAAAAGGGAAGTGGATGCG | 6.83 | 6.71 | 2.72
GAAAAGAGGAAGAGTCTTAG | 5 | 5.65 | 2.18
GGAAGAAGGAAGTGGGGGCC | 3.66 | 3.91 | 2.16
AGTAAGAGGAACTGTGCTAA | 3.63 | 3.41 | 1.31
